# Assay results as given in the supplement of paper PMC4604168 (melanoma cell lines).
# This is one part of the list. Single values are uncertain, as repeats are few or missing.
# Columns and labels:
# Assay in all cases: cell count relative to DMSO control; melanoma cells; higher = more viable cells
# Conditions in all cases: library dose: standard library concentration; 72 h
# [1] = tested on: SkMel28
# [2] = tested on: SkMel2
# [3] = tested on: SkMel30
# [4] = tested on: SkMel5
# [5] = tested on: UACC257
# [6] = tested on: UACC62
# [7] = tested on: WM115
# [8] = tested on: WM1716
# [9] = tested on: WM1745
# [10] = tested on: WM3526
# 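Further: cells treated in 1,536-well plates, then fixed and DAPI-stained, with nuclei counted from automated high-throughput microscope images.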
Structure (SMILES),cell count [1],cell count [2],cell count [3],cell count [4],cell count [5],cell count [6],cell count [7],cell count [8],cell count [9],cell count [10]
"C[C@]12O[C@H](C[C@]1(O)CO)n1c3ccccc3c3c4c(c5c6ccccc6n2c5c31)CNC4=O [Lestaurtinib] + NCC(=O)Nc1ccc(-n2nc(C(F)(F)F)cc2-c2ccc3c(ccc4ccccc43)c2)cc1 [OSU03012] (first compound 0.02 µM, partner dose 5 µM)",20.3%,44.9%,42.2%,53.5%,73.7%,66.3%,75.1%,99.5%,101%,63.9%
"C[C@]12O[C@H](C[C@]1(O)CO)n1c3ccccc3c3c4c(c5c6ccccc6n2c5c31)CNC4=O [Lestaurtinib] + CN(NC(=O)CC(=O)NN(C)C(=S)c1ccccc1)C(=S)c1ccccc1 [STA4783] (first compound 0.02 µM, partner dose 0.03 µM)",28.2%,64.6%,73.2%,46.3%,94.8%,34.6%,17.1%,73.4%,25.4%,61.4%
"N.N.[Cl][Pt][Cl] [cisplatin] + Cn1c(Nc2ccc(C(F)(F)F)cc2)nc2cc(Oc3ccnc(-c4ncc(C(F)(F)F)[nH]4)c3)ccc21 [CHIR265] (first compound 8 µM, partner dose 0.4 µM)",63.6%,106%,67.9%,67.8%,72.4%,68.6%,79.1%,85.8%,82.3%,59.6%
"C[C@]12O[C@H](C[C@]1(O)CO)n1c3ccccc3c3c4c(c5c6ccccc6n2c5c31)CNC4=O [Lestaurtinib] + C[C@@H](Oc1cc(-c2cnn(C3CCNCC3)c2)cnc1N)c1c(Cl)ccc(F)c1Cl [Crizotinib] (first compound 0.02 µM, partner dose 1 µM)",64%,88.5%,76.6%,61.1%,71%,73.2%,54.8%,101%,71.1%,75%
"N.N.[Cl][Pt][Cl] [cisplatin] + CC(C)(C)c1cnc(CSc2cnc(NC(=O)C3CCNCC3)s2)o1 [SNS-032] (first compound 8 µM, partner dose 0.05 µM)",80.7%,94.1%,88.6%,80.1%,81.2%,73.5%,78.6%,82%,98.1%,82.1%
"Cn1cc(C2=C(c3cn(C4CCN(Cc5ccccn5)CC4)c4ccccc34)C(=O)NC2=O)c2ccccc21 [Enzastaurin] + Cc1nc(Nc2ncc(C(=O)Nc3c(C)cccc3Cl)s2)cc(N2CCN(CCO)CC2)n1 [dasatanib] (first compound 4 µM, partner dose 0.02 µM)",59.5%,96.7%,104%,61%,75.2%,62.6%,65.1%,51.6%,12.7%,78.4%
"C[As](C)SC[C@H](NC(=O)CC[C@H](N)C(=O)O)C(=O)NCC(=O)O [Darinaparsin] + O=C(Oc1ccc([N+](=O)[O-])cc1)N1CCC(C(O)(c2ccc3c(c2)OCO3)c2ccc3c(c2)OCO3)CC1 [JZL184] (first compound 2 µM, partner dose 5 µM)",85.5%,95.2%,83.6%,47.6%,90.2%,71.7%,73%,63.1%,109%,62.4%
"C[As](C)SC[C@H](NC(=O)CC[C@H](N)C(=O)O)C(=O)NCC(=O)O [Darinaparsin] + Nc1cccc2c1CN(C1CCC(=O)NC1=O)C2=O [lenalidomide] (first compound 2 µM, partner dose 5 µM)",114%,109%,93.7%,67.7%,77.4%,67.7%,69.7%,63.2%,96.2%,92.6%
"C[As](C)SC[C@H](NC(=O)CC[C@H](N)C(=O)O)C(=O)NCC(=O)O [Darinaparsin] + Oc1nc(-c2ccc(C(F)(F)F)cc2)nc2c1CSCC2 [XAV939] (first compound 2 µM, partner dose 10 µM)",70%,107%,90.7%,65.5%,61.4%,79.4%,95.1%,61.5%,82.3%,75.8%
"C[C@]12O[C@H](C[C@]1(O)CO)n1c3ccccc3c3c4c(c5c6ccccc6n2c5c31)CNC4=O [Lestaurtinib] + CC(=O)O[C@@]12CO[C@@H]1C[C@H](O)[C@@]1(C)C(=O)[C@H](O)C3=C(C)[C@@H](OC(=O)[C@H](O)[C@@H](NC(=O)OC(C)(C)C)c4ccccc4)C[C@@](O)([C@@H](OC(=O)c4ccccc4)[C@H]21)C3(C)C [Docetaxel] (first compound 0.02 µM, partner dose 0.0005 µM)",13.1%,14.2%,33.2%,28.1%,58.8%,53.4%,28.3%,31.6%,24%,30.4%
"C[C@]12O[C@H](C[C@]1(O)CO)n1c3ccccc3c3c4c(c5c6ccccc6n2c5c31)CNC4=O [Lestaurtinib] + C[C@]1(c2nc3c(C(N)=O)cccc3[nH]2)CCCN1 [Veliparib] (first compound 0.02 µM, partner dose 7 µM)",84.3%,115%,87.9%,64.1%,85.6%,78.3%,70.6%,80.6%,70.3%,74.8%
"Cn1cc(C2=C(c3cn(C4CCN(Cc5ccccn5)CC4)c4ccccc34)C(=O)NC2=O)c2ccccc21 [Enzastaurin] + Cn1nnc2c(C(N)=O)ncn2c1=O [temozolomide] (first compound 4 µM, partner dose 10 µM)",37.2%,65.4%,60.8%,87.9%,100%,55.9%,97.1%,55.6%,42.4%,77.5%
"Cn1cc(C2=C(c3cn(C4CCN(Cc5ccccn5)CC4)c4ccccc34)C(=O)NC2=O)c2ccccc21 [Enzastaurin] + COc1cc2c(Oc3ccc4[nH]c(C)cc4c3F)ncnc2cc1OCCCN1CCCC1 [cediranib] (first compound 4 µM, partner dose 2 µM)",74.1%,73.4%,103%,90.4%,107%,58.2%,72.8%,68.4%,15.2%,88.1%
"Cn1cc(C2=C(c3cn(C4CCN(Cc5ccccn5)CC4)c4ccccc34)C(=O)NC2=O)c2ccccc21 [Enzastaurin] + Oc1cc(-c2nc(-c3ccccc3)[nH]c2-c2ccncc2)ccc1Cl [L779450] (first compound 4 µM, partner dose 1 µM)",74.5%,60.7%,91%,84.6%,121%,56.7%,60%,64.6%,–,72.3%
"N.N.[Cl][Pt][Cl] [cisplatin] + Cc1cc(SCc2sc(-c3ccc(C(F)(F)F)c(F)c3)nc2C)ccc1OCC(=O)O [GW0742] (first compound 8 µM, partner dose 10 µM)",92.3%,95%,103%,93.5%,65.5%,86.8%,114%,81.9%,–,87.8%
"N.N.[Cl][Pt][Cl] [cisplatin] + COc1ccc2c(c1)CCC1C2CCC2(C)C(NCCCCCCN3C(=O)C=CC3=O)CCC12 [U73122] (first compound 8 µM, partner dose 2 µM)",50.3%,77.5%,75.7%,56.5%,83%,51.6%,70.6%,73.4%,–,72.1%
"Cn1cc(C2=C(c3cn(C4CCN(Cc5ccccn5)CC4)c4ccccc34)C(=O)NC2=O)c2ccccc21 [Enzastaurin] + Oc1nc(-c2ccc(C(F)(F)F)cc2)nc2c1CSCC2 [XAV939] (first compound 4 µM, partner dose 10 µM)",93.3%,89%,91.3%,62%,80.2%,79.3%,108%,56.7%,–,82.6%
"N.N.[Cl][Pt][Cl] [cisplatin] + COc1cc(N2CCC(N3CCN(C)CC3)CC2)ccc1Nc1ncc(Cl)c(Nc2ccccc2S(=O)(=O)C(C)C)n1 [NVP-TAE684] (first compound 8 µM, partner dose 0.4 µM)",79.4%,86.7%,102%,67.3%,73%,78.1%,73.3%,83.1%,–,81.8%
"Cn1cc(C2=C(c3cn(C4CCN(Cc5ccccn5)CC4)c4ccccc34)C(=O)NC2=O)c2ccccc21 [Enzastaurin] + O=C1NC(=O)/C(=C/c2ccc(-c3ccc(F)cc3O)o2)S1 [AS252424] (first compound 4 µM, partner dose 5 µM)",70.6%,53%,92.4%,83.1%,97.3%,55.7%,98.8%,63.9%,–,85.2%
"C[C@]12O[C@H](C[C@]1(O)CO)n1c3ccccc3c3c4c(c5c6ccccc6n2c5c31)CNC4=O [Lestaurtinib] + C/C(O)=C(\C#N)C(=O)Nc1cc(Br)ccc1Br [LFM-A13] (first compound 0.02 µM, partner dose 10 µM)",51.9%,93.8%,81.5%,68.5%,82.7%,73.5%,74.8%,79.2%,–,65.5%
"N.N.[Cl][Pt][Cl] [cisplatin] + C/C(O)=C(\C#N)C(=O)Nc1cc(Br)ccc1Br [LFM-A13] (first compound 8 µM, partner dose 10 µM)",104%,104%,87.7%,92.6%,82%,76.1%,73.9%,93%,–,80.4%
